Measurements: PubChem BioAssay (NCI)
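Five compound concentrations were applied to cells in 96-well plates for 48 hours; endpoints were derived by simple linear interpolation of the resulting dose-response curve. GI50 = concentration required for 50% inhibition of growth. The concentration for full growth arrest is given as TGI.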

System: NCI-H322M lung
Experiment: NCI anticancer screen, dose series, 48 h

Which results are given for `C=C1C(=O)O[C@@H]2C[C@@H](C)/C=C\C(=O)[C@](C)(OC(C)=O)C[C@H](OC(=O)/C(C)=C\C)[C@@H]12`?
GI50: 16.3 µM; TGI: > 25 µM

`CCc1nn2c(C)cc(C)nc2c1Cc1ccc(/C=C/CN2CCN(CCOCCOCCN3CCN(C/C=C/c4ccc(Cc5c(CC)nn6c(C)cc(C)nc56)cc4)CC3)CC2)cc1` was tested. Which GI50 did it give?
The GI50 was 2.66 µM.

What about the TGI of the same compound?
Its TGI is 7.54 µM.

Which GI50 does the source give for `CCNC(=O)Oc1ccc(/C(=C(/C)c2ccccc2)c2ccc(OCCN3CCCCCC3)cc2)cc1` here?
The GI50 was 4.25 µM.

What about the TGI of the same compound?
The TGI was 15.6 µM.
